PMC4336329 (PLoS ONE, 2015)
The whole screen tested about 310,000 compounds, of which about 14,000 (4.5%) showed an effect of 50% or more. The effect is printed as a negative number. The list shows a part of the results.

Target: human ether-à-go-go-related gene (hERG) potassium channel (human, UniProt Q12809)
Assay: primary screen, population patch clamp on CHO cells stably expressing hERG
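Also: peak tail current of the secondary pulse compared with the same well before compound.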

Sequence of human ether-à-go-go-related gene (hERG) potassium channel (Q12809 whole entry, looked up): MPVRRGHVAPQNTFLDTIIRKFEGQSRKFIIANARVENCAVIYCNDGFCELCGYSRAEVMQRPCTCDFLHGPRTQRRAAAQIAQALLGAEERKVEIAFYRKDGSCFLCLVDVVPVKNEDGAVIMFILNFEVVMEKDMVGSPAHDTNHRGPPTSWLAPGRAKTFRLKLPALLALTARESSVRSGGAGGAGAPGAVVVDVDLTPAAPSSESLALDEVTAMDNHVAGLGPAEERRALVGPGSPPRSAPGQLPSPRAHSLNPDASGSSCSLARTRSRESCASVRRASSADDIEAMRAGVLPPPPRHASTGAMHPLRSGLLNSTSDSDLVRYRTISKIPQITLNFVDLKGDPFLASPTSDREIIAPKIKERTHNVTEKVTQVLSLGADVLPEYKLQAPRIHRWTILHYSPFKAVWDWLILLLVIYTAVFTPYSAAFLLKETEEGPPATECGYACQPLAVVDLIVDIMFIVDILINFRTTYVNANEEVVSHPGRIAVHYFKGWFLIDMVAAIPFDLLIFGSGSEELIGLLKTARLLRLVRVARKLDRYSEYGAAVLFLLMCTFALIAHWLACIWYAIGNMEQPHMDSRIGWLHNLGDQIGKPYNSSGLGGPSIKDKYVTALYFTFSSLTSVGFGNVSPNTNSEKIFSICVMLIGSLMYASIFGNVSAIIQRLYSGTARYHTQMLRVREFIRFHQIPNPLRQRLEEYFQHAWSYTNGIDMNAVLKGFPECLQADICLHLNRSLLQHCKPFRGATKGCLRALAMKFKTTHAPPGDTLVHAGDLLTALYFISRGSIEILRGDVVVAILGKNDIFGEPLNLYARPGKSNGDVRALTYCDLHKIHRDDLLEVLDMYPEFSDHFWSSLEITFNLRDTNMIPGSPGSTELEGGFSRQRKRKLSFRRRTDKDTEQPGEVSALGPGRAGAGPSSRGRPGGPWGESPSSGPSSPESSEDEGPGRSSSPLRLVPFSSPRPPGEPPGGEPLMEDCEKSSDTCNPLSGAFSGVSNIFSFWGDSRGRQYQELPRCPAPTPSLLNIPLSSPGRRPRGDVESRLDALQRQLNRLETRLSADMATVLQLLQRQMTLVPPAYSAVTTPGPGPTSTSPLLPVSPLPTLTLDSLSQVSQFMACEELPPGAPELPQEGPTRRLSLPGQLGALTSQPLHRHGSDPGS

SMILES	hERG current change (%, negative = inhibition) at 10uM [%]
O=[N+]([O-])c1cccc(Cl)c1NCCNc1ncc(C(F)(F)F)cc1Cl	15.6
CC(OC(=O)CCc1nc2ccccc2c(=O)[nH]1)C(=O)c1ccc(C(C)(C)C)cc1 (centres unmarked)	-12.3
Cn1c(SCC(=O)NNC(=O)c2ccccc2Br)nnc1C(F)(F)F	11.7
CN(Cc1ccon1)Cc1cn(C)nc1-c1ccc(Oc2ccccc2)cc1	-20.6
O=C(O)C1CCCCC1C(=O)Nc1cnn(Cc2ccccc2)c1 (centres unmarked)	0.545
Cc1cc(C2=NNC(=NC3CC3)SC2)c(C)n1Cc1ccco1	-47.5
Cc1ccc(CC(=O)Nc2ccccc2N2CCOCC2)cc1C	-24.6
COc1ccccc1CNC(=O)COC(=O)c1cccnc1SCC(=O)NCc1ccccc1OC	3.73
COC(=O)c1sc(N2CCCCC2)c(C#N)c1N	-4.97
Cc1cccc(N2CCN(C(=O)C3CCCN(S(=O)(=O)c4cnc[nH]4)C3)CC2C)c1 (centres unmarked)	-10.4
COc1ccc(OCC(=O)C2CC2)c(C#N)c1	2.36
CN1CCN(CC(=O)Nc2c(C(=O)c3ccccc3)oc3ccccc23)CC1	-78.9
CCn1cc(C(=O)N(C)c2ccccc2F)c2cc(OC)c(OC)cc2c1=O	18.7
CSc1ccccc1NC(=O)c1cc(Cl)sc1Cl	-11.5
COCCCn1c(SCC(=O)NC2CCCC2)nnc1-c1ccco1	9.39
COc1ccc(CN(C)C(=O)C2CCN(S(=O)(=O)c3cccs3)CC2)cc1F	-42.6
CS(=O)(=O)N1c2cccc3cccc(c23)S1(=O)=O	15.1
Cc1ccc(S(=O)(=O)Nc2c3ccccc3nc(=O)n2-c2ccccc2)cc1	24.3
Cc1ccc(F)c(N=Cc2c(O)c3ccccc3oc2=O)c1	14.1
Cc1nn(Cc2ccccc2)c(Cl)c1C(=O)NCCc1ccccc1	-0.929
CCOC(=O)c1ccc(NC(=O)Cn2c(-c3nonc3N)nc3ccccc32)cc1	69.6
CC(OC(=O)CCCN=C1NS(=O)(=O)c2ccccc21)C(=O)Nc1ccc(F)c(F)c1F (centres unmarked)	-1.56
Cc1c(NC2=CC(=O)CCC2)c(=O)n(-c2ccccc2)n1C	8.37

SMILES	hERG current change (%, negative = inhibition) at 10uM [%]
N#Cc1cn(CC(=O)N2CCc3ccccc3C2)c2ccccc12	-7.6
Cc1ccc([N+](=O)[O-])cc1S(=O)(=O)Nc1cccc(-c2ccc(N3CCOCC3)nn2)c1	-13
COc1ccc(NC(=O)NCc2ccco2)cc1OC	25.2
OC1CCCC1	12.6
COc1cc(C(=O)Nc2c(C(=O)O)[nH]c3ccc(Br)cc23)cc(OC)c1OC	11.8
O=C(Nc1ccc(S(=O)(=O)NC2CCCCC2)cc1)c1ccc(Br)o1	3.38
O=C(Cn1nc(-c2ccco2)ccc1=O)Nc1cc(Cl)ccc1Cl	-5.12
O=C(O)c1cccc(Cn2cc(Br)cn2)c1	4.68
COc1ccccc1N1CCN(C(=O)c2cc(C(C)(C)C)oc2C)CC1	-4.04
Cc1cccc(N=Nc2c(N)n[nH]c2-c2ccc(Cl)cc2)c1	6.59
CCOc1ccccc1CN1CCCC(C(=O)Nc2cccc(-n3cccn3)c2)C1 (centres unmarked)	-69.5
O=[N+]([O-])c1ccc(C2Oc3ccccc3C3CC(c4ccccc4)=NN32)s1 (centres unmarked)	-4.6
COC(=O)c1nn(-c2ccc(-c3ccccc3)cc2)cc1O	-3.85
CCN(CC(=O)Nc1ccc(NC(C)=O)cc1)C(=O)c1ccc(N2CCC(C)CC2)c([N+](=O)[O-])c1	-25.5
CC1(C)CC(=O)C=C(Nc2ccc(OCC(F)(F)C(F)F)cc2)C1	-65.7
COc1cc(C(=O)Oc2ccccc2N)cc(OC)c1OC	0.207
COc1cc(NC(=O)c2ccc(CNc3c(N4CCCC4)c(=O)c3=O)cc2)cc(OC)c1OC	-0.986
Cc1ccc(O)c(NC(=S)NC(=O)Cc2ccc(Cl)cc2)c1	18.1
Cc1cccc2cc(CN(Cc3ccco3)C(=O)c3cccs3)c(=O)[nH]c12	-1.63
CC(=O)N1CCN(c2ccc(Nc3ncnc4c3oc3ccccc34)cc2)CC1.Cl	-65.9
CN1CCC(N(C)S(=O)(=O)c2ccc(NC(=O)COc3ccc(Br)cc3Cl)cc2)CC1	-1.05
COc1ccccc1NS(=O)(=O)c1cccc(C(=O)OCC(=O)Nc2cc(C)on2)c1	-33.9
CCOC(=O)c1sc(NS(=O)(=O)c2ccccc2)nc1C	10.4

SMILES	hERG current change (%, negative = inhibition) at 10uM [%]
O=C(O)CSCC(=O)N1CCN(S(=O)(=O)c2ccccc2)CC1	21.7
Cn1c(O)c(C2=NN(C(=O)CCl)C(c3ccccc3)C2)c(=O)n(C)c1=O (centres unmarked)	8.39
Oc1ccccc1-c1cc(-c2ccc(F)cc2)n[nH]1	7.05
COc1cc(O)c2c(c1)OC(C)(C)CC2=O	7.38
CCN(CC)C(=O)Cn1cc(S(=O)(=O)CC(=O)NCc2ccc(F)cc2)c2ccccc21	-14.7
Cc1ccc(S(=O)(=O)NC2=NCN(CCN3CCOCC3)CN2)cc1	8.55
CN1CCCC(OC(=O)/C(C#N)=C/c2ccccc2)C1.Cl (centres unmarked)	26.8
C=CCNc1nc(N)c([N+](=O)[O-])c(NCCO)n1	-2.15
Cc1nnc(SCC(=O)Nc2cc(C(F)(F)F)ccc2N2CCOCC2)o1	-9.56
COc1cc(-c2csc(NC3CCCCC3)n2)cc(OC)c1OC	5.84
COc1ccc(NS(=O)(=O)c2cccc(NC(=O)CCS(=O)(=O)c3ccccc3)c2)cc1	-4.41
O=c1cc(-c2ccccc2)[nH]c2nc3ccccc3n12	11.7
CCN(CC(=O)Nc1ccc(N2CCOCC2)cc1)C(=O)c1ccc(C#N)cc1	8.85
O=C(CCN1CCc2ccccc2C1)Nc1ccc(F)cc1	-38.7
COc1ccc(CC(=O)NCc2nc(-c3ccccc3)no2)cc1	-1.97
O=C(NC1CCN(c2ncccn2)CC1)c1ccccc1F	18.6
C/C=C\C=C/C(=O)Nc1cccc(C2=NOC3(C2)C[C@@H](C(N)=O)N(C(=O)COc2ccc(Cl)cc2)C3)c1 (some centres unmarked)	-7.47
Cc1ccccc1Nc1nc(N)nc(COC(=O)CCS(=O)(=O)c2ccccc2)n1	-14.4
Cc1[nH]c(=O)[nH]c(=O)c1CSCC(=O)OCC(=O)Nc1ccccn1	3.79
COc1cccc(OCc2cc(C(=O)N3CCN(c4ccccc4OC)CC3)no2)c1	6.19
COc1ccc(CCNC(=O)CSc2n[nH]c(N)n2)cc1	15.8
Cc1ccc(-c2nn(CC(=O)O)c(=O)c3ccccc23)cc1	-10.7
COC(C(=O)NC(C(C)C)C(C)C)c1ccccc1 (centres unmarked)	-32.2

SMILES	hERG current change (%, negative = inhibition) at 10uM [%]
N#Cc1ccccc1S(=O)(=O)N1CCN(CC(=O)Nc2ccccc2C(=O)NC2CC2)CC1	-66.5
CC(=O)NC(C)c1cc(Cl)c2ccccc2c1O (centres unmarked)	1.04
CC1=C([N+](=O)[O-])C(c2cccc(Br)c2)C2=C(N1)c1ccccc1C2=O (centres unmarked)	-6.87
Cc1cccc2c1CC(C)(C)N=C2C1=C(O)CC(C)(C)CC1=O	6.37
CC1SC(=S)N(c2ccc(N(C)C)cc2)C1=O (centres unmarked)	13.1
Cc1ccc(C)c(NC(=O)CNS(=O)(=O)c2ccccc2)c1	9.63
COC(=O)C1=C(C)N(Cc2ccccc2)C(=NCC(C)C)N[C@H]1c1ccccc1	-55.9
CCOC(=O)C1C(=O)C=C(C)C(C(=O)OCC)C1c1cccc([N+](=O)[O-])c1 (centres unmarked)	-3.71
O=C(N/N=C/c1cn(-c2ccccc2)nc1-c1cccnc1)c1ccccc1	-60.7
Fc1cccc(CCN2CCNC[C@@H]2c2ccccc2)c1	3.63
Cc1cc(NC(=O)CSCC(=O)NCc2cccc(C(F)(F)F)c2)no1	-18.7
COC(=O)c1c(N)sc(C(C)=O)c1C	0.466
S=C1NCCOCCOCCOCCOCCNC(=S)N2CCOCCOCCN1CCOCC2	8.16
O=C(CCC(=O)N(c1cccc(F)c1)C(C(=O)NC1CCCC1)c1ccncc1)Nc1cccnc1 (centres unmarked)	14.3
O=C(NC1CCCCC1)c1cccnc1Sc1ccccc1Cl	7.67
COc1ccc(C(C)(C)C)cc1NC(=O)c1cncc(Br)c1	4.74
COCCNC(=O)CS(=O)Cc1nc(-c2ccc(OC)cc2)oc1C (centres unmarked)	17
Cn1nc(C(=O)Nc2cc(Cl)ccc2N2CCCC2)c2ccccc2c1=O	-11.7
O=C(Nc1nc2ccccc2[nH]1)C1CC1	11.9
CN(C)CCNc1oc(COc2ccc(Cl)cc2Cl)nc1C#N	15.3
